# Measured values published in PubChem BioAssay AID2546 (National Center for Advancing Translational Sciences (NCATS), 2010).
# Several values for one entry are separate records, joined by “and”; a condition that tells them apart may be missing. Equal values may be shown once. Hit rate of the full screen: of about 310,000 compounds, about 11,000 (3.5%) were called active. The shares of active, inactive and inconclusive entries below differ from those in the screen. Calls follow the shape of the dose curve; as a rule, active = well fitted inhibition curve with a large enough effect; inconclusive = small, poorly fitted or top-dose-only effect, or effect the other way; inactive = flat fitted curve, though single readings scatter. No potency is given beside an inconclusive call; the fits are too rough.
# Experiment: VP16 counterscreen qHTS for inhibitors of ROR gamma transcriptional activity;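 also: Gal4-VP16 expression switched on by copper sulfate through the metallothionein promoter; nearly all actives have a fitted effect of over 50% in size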
# Conditions: Drosophila S2 Gal4-VP16 UAS-luciferase, luminescence, 20 h; series mostly up to 53.6 µM
# Potency is read from the fitted curve at half-maximal effect; tags tell the direction and shape of the fitted curve.
row,SMILES,Potency
1,CC(C)N(CCC(=O)c1ccc2ccccc2c1)Cc1ccccc1,active: 2.51 µM
2,O=C(CSc1nnc(CNc2ccc(Cl)cc2)o1)Nc1nc2ccccc2s1,"inconclusive [inhibitor, single point]"
3,COc1cccc(NC(=O)Cc2nc(-c3ccccc3)sc2-c2ccc(C)cc2)c1,"inconclusive [inhibitor, partial curve]"
4,COc1cc(/C=C(/NC(=O)c2ccc(Cl)cc2Cl)C(=O)O)cc(OC)c1OC,"inconclusive [activator, single point]"
5,CCNC(=S)N(CCc1c(C)[nH]c2ccccc12)Cc1cc(OC)c(OC)c(OC)c1,"inconclusive [inhibitor, single point]"
6,O=C(CSc1nc(C2CC2)nc2ccccc12)N1CCCCC1,inactive
7,CCc1nn(C(C)C(=O)N(C)Cc2ccccc2)c(=O)c2cc3occc3n12 (stereo unspecified),"inconclusive [activator, full curve]"
8,COc1ccc(-n2cc(C(=O)c3ccccc3O)cn2)cc1,"inconclusive [inhibitor, single point]"
9,C/C(=N\NC(=O)c1cc(Br)ccc1O)c1cccs1,"inconclusive [inhibitor, single point]"
10,COc1ccc(CCNC2=C(Cl)C(=O)N(Cc3ccccc3)C2=O)cc1OC,"inconclusive [inhibitor, single point]"
11,COC(=O)CN1C(=O)C(O)(CC(=O)c2cccc(Br)c2)c2ccccc21 (stereo unspecified),"inconclusive [inhibitor, single point]"
12,O=C(Nc1ccc(O)cc1)C1CC=CCC1 (stereo unspecified),inactive
13,CCOc1ccc(S(=O)(=O)Nc2ccccc2C(=O)NCc2ccco2)cc1,"inconclusive [inhibitor, single point]"
14,Cc1ccccc1NCC(=O)N/N=C/c1c[nH]c2ccccc12,"inconclusive [inhibitor, single point]"
15,C=CCNC(=S)N/N=C(\C)c1ccccn1,active: 0.112 µM
16,CCC(C)(C)c1ccc(CC(C)CN2C[C@@H](C)O[C@@H](C)C2)cc1 (stereo partly specified),"inconclusive [inhibitor, single point]"
17,CCn1c(=S)[nH]c2nc3c(cc2c1=O)CCCC3,"inconclusive [inhibitor, single point]"
18,Cc1nn(Cc2ccc(C(=O)Nc3nccs3)cc2)c(C)c1Cl,"inconclusive [inhibitor, single point]"
19,NC(=S)N/N=C/c1ccc(-c2ccc([N+](=O)[O-])cc2)o1,"inconclusive [inhibitor, single point]"
20,COc1ccc(C2(CNC(=O)CCC(=O)O)CCCC2)cc1OC,inactive
21,Cc1ccc(NC(=S)Nc2ccc(C(C)C)cc2)cc1S(=O)(=O)N1CCCCCC1,active: 4.47 µM
22,COc1ccc(Cl)cc1NC(=O)CN1CCN(S(=O)(=O)N2CCCCC2)CC1,inactive
23,CS(=O)(=O)Cc1ccc(C(=O)Nc2cccc(-c3nc4ccccc4[nH]3)c2)cc1,inactive
24,COc1ccc(S(=O)(=O)N(C(C)=O)c2ccc(OC(C)=O)c3ccccc23)cc1[N+](=O)[O-],"inconclusive [inhibitor, single point]"
25,O=C(CCN1C(=O)/C(=C/c2ccccc2)SC1=S)NCCc1ccc(O)cc1,"inconclusive [inhibitor, single point]"
26,CCOc1ccc(Nc2cc(C)nc(-n3nc(C)cc3C)n2)cc1,active: 0.891 µM

row,SMILES,Potency
1,O=C(Nc1ccc(-c2nnn(CC(=O)N3CCN(C(=O)c4ccco4)CC3)n2)cc1)c1ccc(F)cc1,inactive
2,Cc1cccc(-n2ncc3c(NCc4ccccc4)ncnc32)c1,"inconclusive [inhibitor, partial curve]"
3,COc1cc(/C=C2\SC(=O)NC2=O)ccc1Oc1ccc([N+](=O)[O-])cn1,"inconclusive [inhibitor, single point]"
4,Cc1cc(N/N=C/c2ccccc2Cl)nc(NCc2ccccc2)n1,"inconclusive [inhibitor, single point]"
5,C[C@@H](O)CCC[C@H](O)/C=C/[C@H]1[C@H](O)CC(=O)[C@@H]1C/C=C\CCCC(=O)O,inactive
6,Brc1ccc(-c2csc(/N=C/N3CCCC3)n2)cc1,"inconclusive [activator, full curve, poor fit]"
7,CCS(=O)(=O)c1nc(S(=O)(=O)c2ccc(Cl)cc2)c(NCCN2CCOCC2)s1,"inconclusive [inhibitor, single point]"
8,CC(C)c1ccc(NCCC(=O)c2cccs2)cc1,"inconclusive [inhibitor, single point]"
9,Cc1ccc(Cc2cnc(NC(=O)/C(C#N)=C/c3ccc(-c4ccccc4[N+](=O)[O-])o3)s2)cc1,active: 4.47 µM
10,COc1ccc(C2CC(=O)Nc3ccccc3S2(=O)=O)cc1OC (stereo unspecified),inactive
11,CCN1C(=O)/C(=C/c2ccc(C)s2)NC1=S,"inconclusive [inhibitor, single point]"
12,CCC(=O)Nc1cc(Cl)ccc1C(=O)O,inactive
13,CCN(CC)CCOC(=O)c1ccc(NC(=O)CCCN2C(=O)S/C(=C/c3ccc(OC)cc3)C2=S)cc1,active: 1.58 µM
14,Cc1cc(C(=O)COC(=O)c2nccnc2N)c(C)n1C,"inconclusive [inhibitor, partial curve]"
15,O=C(Nc1nnc(-c2ccco2)o1)c1ccc(N2C(=O)CCC2=O)cc1,"inconclusive [inhibitor, partial curve]"
16,CCNS(=O)(=O)c1ccc(CCC(=O)O)cc1,inactive
17,S=c1[nH]nc(-c2ccc(Cl)cc2)n1/N=C/c1ccco1,"inconclusive [inhibitor, partial curve]"
18,Cc1ccccc1CC1CCN(CCCNC(=O)Nc2ccccc2)CC1,inactive
19,Cc1ccc(C(O)(C(=O)NNc2ccc3ccccc3n2)c2ccc(C)cc2)cc1,active: 2.82 µM and active: 8.91 µM
20,C=CCn1c(C23CC4CC(CC(C4)C2)C3)n[nH]c1=S,active: 2.51 µM
21,COc1ccc(-c2[nH]ncc2-c2csc(C)n2)c(O)c1,"inconclusive [inhibitor, single point]"
22,O=C(Nc1ccc(Cl)cc1)Nc1ccc(N2CCOCC2)cc1,inactive
23,CCOC(=O)c1ccccc1-c1cn2cc(Cl)ccc2n1,inactive
24,O=C(NCCc1ccccc1)c1ccc2c(c1)OCO2,active: 5.01 µM
25,Cc1ccc(C(=O)O/N=C(\N)c2ccccn2)cc1Cl,"inconclusive [inhibitor, single point]"
26,COc1ccc(C(=O)/C=C2\NCC3c4ccccc4CCN3C2=O)cc1 (stereo unspecified),"inconclusive [inhibitor, single point]"

row,SMILES,Potency
1,CCOC(=O)c1cc(CC)sc1NC(=O)C1CC(=O)NN1Cc1ccccc1 (stereo unspecified),"inconclusive [inhibitor, single point]"
2,CS(=O)(=O)c1nc(-c2ccc(Br)cc2)cc(-c2ccccc2)c1C#N,"inconclusive [inhibitor, partial curve]"
3,COCCNC(=S)N1CCC(C(=O)c2ccc(C)cc2)CC1,inactive
4,Cc1ccc(NC(=O)CS(=O)CC(=O)Nc2ccc(N3CCOCC3)cc2)cc1Cl (stereo unspecified),"inconclusive [inhibitor, single point]"
5,O=C(CCC(=O)N1CCSc2ccccc21)Nc1ccc(F)cc1,inactive
6,CCOCCCn1c(=N)c(C(N)=S)cc2c(=O)n3cccc(C)c3nc21,active: 14.1 µM
7,O=S(=O)(c1ccccc1)n1ccc2ccccc21,"inconclusive [inhibitor, single point]"
8,N#C/C(=C/c1ccco1)C(N)=S,inactive
9,Cc1occc1C(=O)N/N=C/C=C\c1ccccc1[N+](=O)[O-],"inconclusive [inhibitor, partial curve, poor fit]"
10,COc1cccc(/C=N/NC(=O)C(=O)Nc2ccccc2OC(F)(F)C(F)F)c1O,active: 1.41 µM
11,CCN(CC)c1ccc(/C=C(/C#N)C(=O)NC(C)C)o1,inactive
12,CCOc1ccc(S(=O)(=O)NCCCN2CCOCC2)c2ccccc12,inactive
13,CN1CCN(C(=O)c2ccc3c(=O)n(Cc4ccco4)c(=S)[nH]c3c2)CC1,inactive
14,O=C(CSc1ccc2c(c1)OCCO2)NCc1ccco1,inactive
15,COc1cc(NC(=S)NC(=O)CC(C)C)ccc1NC(=O)c1cc2ccccc2o1,"inconclusive [inhibitor, partial curve]"
16,O=C(Nc1ccccc1)/C(=C\c1cccs1)NC(=O)c1ccccc1,"inconclusive [inhibitor, partial curve]"
17,CC(C)Cc1nc(C#N)c(N2CCC(C(N)=O)CC2)o1,inactive
18,CCc1nc(N=C(N)N)nc2ccccc12,inactive
19,O=c1c(-c2cc(F)cc(F)c2)nc2cnc(N3CCNCC3)nc2n1Cc1ccc(F)cc1,active: 4.47 µM
20,O=C(COC(=O)c1n[nH]c2ccccc12)Nc1ccc(S(=O)(=O)N2CCCC2)cc1,active: 10 µM
21,CCn1nc(C)cc1C(=O)NC1CCCc2c1cnn2-c1ccc(C)c(C)c1 (stereo unspecified),"inconclusive [inhibitor, single point]"
22,CC(C)(C)OC(=O)N1CCN(c2ccc(NC(=O)c3ccco3)cc2)CC1,inactive
23,CCCCCCCCCCn1ccc(=N)cc1,"inconclusive [inhibitor, full curve, poor fit]"
24,C/C(=N\Nc1nc(C)cc(-c2ccccc2)n1)c1ccc(C)o1,active: 10 µM
